From the supplement of paper PMC10126150
Values marked as one replicate rest on one cluster of the flow cell; about a third of the high ones do not repeat.

Test system: ATP
Assay: switch fluorescence ratio, 500 uM ATP over buffer (Cy3 cluster intensity, sum of 5 cycles each) (fold (ratio)); higher = stronger signal-on switching upon ATP binding; sequences stand for … in TCGTCGGCAGCGTCAGATGTGTATAAGAGACAGTTTTTTTTTTTTTTTTTTTTTTTTT…TC
Details: aptamer strand: ATP DNA aptamer (quencher-CACCTGGGGGAGTATTGCGGAGGAAGG + anchor), 100 nM annealed; ATP concentration: 500 uM; one replicate
Method in brief: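 The quencher-labelled ATP aptamer, at 100 nM, was annealed to Cy3-labelled switching-strand clusters on a modified Illumina MiSeq flow-cell. The clusters were imaged in selection buffer, then after 15 min with 500 uM ATP at 22 °C, and this buffer/ATP cycle ran five times with NaOH stripping and re-annealing between runs. Per-cluster fluorescence ratios, summed target-cycle over summed buffer-cycle Cy3 intensity, were averaged per switch-domain sequence. Clusters outside 100-1000 RFU were excluded.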
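Also: ATP exposure 15 min at 22 °C before imaging.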

Sequence	switch fluorescence ratio
AACGCGAAAG	1.12
TCTGATA	0.98
CGACGACTA	1.57
GGCGCCTTGC	1.01
TTGACACATG	0.998
GCAAACTCCC	2.66
ATCATTACGT	0.973
GGGTCCGTTA	1
GCTGGAACGT	1.12
GCAAGCTTAG	1
CATGTAGCGC	1.02
TTTTGGAAT	0.948
AAGTGGTACT	1.05
GGGTGAATTT	0.985
CAGTAGAACT	1.02
GAGTACTTGA	1.01
TCTTGGTGGA	0.988
CTACAGGTTG	1.12
CATTCGCGTT	1.45
GTATTAACCG	0.994
GTGTTGTTTA	1.06
GAACGCCCTG	1.01
ATTTGGACTC	1.01
ACTTAGATAA	1.04
CTCACCTTCT	1.5
CACTCGCTTA	1.17

Sequence	switch fluorescence ratio
GTACGGATGA	1.07
CGTTATACTC	5.04
ACGGAAGAGG	1.04
CCGTCCGTTG	1.54
CATGATGACT	1.03
ACTTTGGGTC	1.03
CAGAAGACAA	1.37
AGGTGGCAAG	0.951
AATCTACTTA	1.01
ATGTTTATTA	0.976
ACCCCGATGC	2.81
AGCCTTAGAA	1.02
CTACGCGCCG	1.11
GGCTTGACTT	1.01
CAATGCTTTC	1.05
CCGGTAGCAG	3.67
TCATTGTGCA	1.03
GATTCGTGCG	1
GCTCGAACTG	1
TCCTTGACCC	1
AGTTAGCCCG	0.97
GCCTCAGGTA	1.02
GCATTTGGGC	1.02
TATTTGGGT	1
AACGGTCCGC	1.18
ACGGGTCGTA	0.988

Sequence	switch fluorescence ratio
GCCAAAAAGA	1.01
ATTCGGGTG	1.21
CCTTTAGTAT	1.04
TCGGGTGTTC	1.06
TCTGTCGCAC	5.17
AAATTCTTCG	1.04
TGAAAATAAA	1.01
CTACGTTGAC	2.19
AAATTCTGT	0.942
GGGGGTCCGG	0.957
AATATTGCTG	1.04
ATCCCTGTCA	1.03
ATATTATAAC	0.986
ATACGAAAAT	1.04
AGTCATTGTA	0.988
TCCATTGCAA	2.85
ACCAGTCGGG	0.998
CAGTCGTTGA	1.03
ATCTTTCTTG	0.989
CGATCGTCCC	1
GTATGTTTGG	0.974
TACGGAAC	1.3
CATATAGACT	0.98
CCATCGAGCG	1
CCGAACATCT	1.17
ATAGTTGTCC	0.966

Sequence	switch fluorescence ratio
GGCTTTTACA	0.973
TATATTTAG	0.985
ACGGCATAAA	0.992
CCTATACTGA	1.02
AAGACC	1.01
TGATGAGGTT	0.983
AGTGTTCCTG	0.991
GCCAGTGAGA	1.04
TAAGAAGTTG	0.989
CGATCCCACA	1.01
GAATGAGTAA	1
TTTCAACTTG	0.944
CTCACGGCAA	6.08
AGCACGCCTG	0.987
GAACCTGGGA	1.01
GAAGTGTTTT	0.949
TGCGTATTAC	1.88
GGATCTTGGA	0.964
AGGGGCGACG	0.958
GGTGGATGAA	0.968
TGACTCTGCT	1.15
AGTAGGACCA	1.02
CACTGCTACC	1.48
AGGTAGTGCG	0.955
TTCTTAACA	1.04
GAGTCCGGGA	1.13

Sequence	switch fluorescence ratio
TTCACGTGGT	0.962
CGCCATCCAC	1.53
GTCTGTGTTT	0.978
GTCAAAGGGG	0.956
CGTTGAACTC	1.05
CACCCAGTTC	1.18
ATTGCACTCA	1.02
TAATGCATGG	1.01
TAGGAGGCTT	0.992
TCAACGGCCT	1.04
TCCAAAGTTT	1.04
GAGGTGCGAG	1
GGAGGTTTAG	0.984
ACCTAGGACG	1.07
CGCGCAGTGG	1.03
TATGAATCA	0.999
TAAAAAAGA	0.993
AAGCATTTGA	1
GGGAAAGAAG	0.971
TCTTAGAAGG	1.02
ACGGTATCAG	1.09
GGGCCGGCAC	0.984
GGAACAATTG	0.956
GCTCTACACC	1.16
GGGCCGTTCA	1.05
TGCAATTAAA	0.999

Sequence	switch fluorescence ratio
AACTCTTACA	1
GCATGCACAT	0.969
AGCGTTTTGT	1.03
TCCGAGTCAT	1
GAGTTGTTCT	0.945
AAACGAGTTA	1.06
CGAGGAAGAA	1.04
GTAAGCAGTG	0.986
AGGAATGAGC	1.01
CAGAGGGGG	1.06
TACGCGTTTA	1.03
CTTGTCGATG	0.99
GATTTATTTC	0.964
GGGGAACGAG	1
CGATCTACGT	1.02
TATCTCTTTC	0.981
TTGTTGATCG	1.01
TTCTGGGTGT	1.07
TTATCATGCG	0.985
TATTATCG	0.983
GAGCCGACTG	0.991
GCCGGAGGCA	1.03
TAAATTGCCC	0.981
TCAAGGAAAT	1.03
GCGGTCACTA	1.03
TGAGAAAGTT	1

Sequence	switch fluorescence ratio
ATCTTGGCCA	0.964
CCGTTTGTAT	1.01
GGGCAACGTG	0.967
AATCAGATAT	1.03
TGTCTTTAGA	1.02
CCTAGGTAGA	1.05
CGACTTTTCG	1
GCGCCTCCAA	1.34
TGCCGTGTTG	1.06
TACTCGAGCG	1.02
TCCTTTTTAT	0.947
GTTCATTTGG	1
TTTATCGGTC	0.952
AGAGGGTTAG	0.988
GGCCTTTCGA	0.976
AATCCTGTG	1.04
CTCTTGTTT	0.955
GAAGGGCCAT	1.11
GAACTTGTCG	0.972
ACGGGTACGT	0.998
ACCCCCCTCA	1.27
GCGCGACGT	1.01
TAATTGTGAG	1.01
GTATGACGGT	1
GTGCATCTCC	1.29
AAAGAAAGAG	0.972

Sequence	switch fluorescence ratio
TGGTCCTAAT	1
CACATCGATA	1
AATGAAGACC	1.01
CGGTTTCACC	0.976
GCGGGGCGGC	1
GAGCCCGGGG	1.04
TGCAGGTGTC	1.51
GACTTCGTGC	1.06
CGGTCGCCCC	1.03
TCCGGCATCA	0.963
CGATATTTCT	0.991
CGAGCCGCGG	0.966
TCCGGTTTGG	0.969
GTATCTAGTG	0.945
TAGTGTCCCC	1.07
CCCCGAGGCA	2.59
GAGCTCGGGT	1.01
TGCTCGGCAT	1.44
CGTTACCTTC	1.29
